# Hit rate of the full screen: of about 44,000 compounds, about 340 (0.77%) were called active. Roughly 5% stayed inconclusive and do not appear here. Calls follow the shape of the dose curve; as a rule, active = well fitted inhibition curve with a large enough effect; inconclusive = small, poorly fitted or top-dose-only effect; inactive = flat fitted curve, though single readings scatter. The list shows a part of the results.
# Experiment: Acumen qHTS Assay for Inhibitors of the mTORC1 Signaling Pathway in MEF (Tsc2-/-, p53-/-) Cells: Sytravon;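 also: plate controls were DMSO for no effect and rapamycin for full effect; nearly all actives have a fitted effect of over 50% in size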
# Settings: phospho-rpS6 immunofluorescence/PI, 24 h; series mostly up to 38.3 µM; activity change, negative = inhibition: at the top concentration
# Procedure, shortened: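 Plate MEFs (Tsc2-/-, p53-/-, empty vector) in DMEM/10% FBS; after 24 h add compound, incubate 24 h at 37 degree Celsius; fix in PFA/TX-100, block, stain phospho-rpS6 and 10 uM PI; scan at 488 nm; report % positive cells.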
row,Structure (SMILES),"activity change, negative = inhibition"
1,O=C(Nc1cc2ccc(O)cc2oc1=O)c1ccc(F)cc1,inactive: 1.04%
2,COc1ccc(CNC(=O)c2cc3c(=O)n4cccc(C)c4nc3s2)cc1,inactive: -3.96%
3,Cc1c(C(=O)Nc2ccc(F)c(F)c2)oc2ccc(S(=O)(=O)N(C)C3CCCCC3)cc12,inactive: 7.91%
4,COc1ccc(CCNC(=O)CCCCn2c(=O)c3ccccc3n(Cc3ccc(Cl)cc3)c2=O)cc1OC,inactive: -0.636%
5,COc1cccc(CNC(=O)c2oc3ccc4c(c3c2C)C(=O)CC(C)(C)O4)c1OC,inactive: -6.24%
6,Cc1cccc(CNC(=O)Cc2ccc(NC(=O)N3CCCCc4ccccc43)cc2)c1,inactive: 2.34%
7,CCOc1ccc(-c2cn3c(n2)sc2cc(C(=O)NCCCN(CC)CC)ccc23)cc1,inactive: -4.14%
8,O=C(Nc1ccc(F)cc1)C1CCCN(c2ncnc3c2nc2n3CCCCC2)C1 (configuration not stated),inactive: -9.2%
9,Cc1ccc(N(C)C(=O)Cn2cc(S(=O)(=O)N3CCCC3)c(S(=O)(=O)N3CCCC3)c2)cc1,inactive: -8.2%
10,Cc1ccc(C(=O)Nc2nc(-c3nnn(-c4cccc(Cl)c4C)c3C)ns2)cc1C,inactive: 1.05%
11,COc1cccc(-c2nc(CS(=O)(=O)CC(=O)NCCc3ccc(OC)c(OC)c3)c(C)o2)c1,inactive: 2.76%
12,Cn1c(=O)c2c(n3ncnc13)NC(=O)CC2c1cccc(F)c1 (configuration not stated),inactive: 1.01%
13,COc1ccc(NS(=O)(=O)c2ccc3c(c2)CC(C)N3C(C)=O)c(OC)c1 (configuration not stated),inactive: -15%
14,CCOC(=O)C1=C(CN2CCN(c3cccc(OC)c3)CC2)NC(=O)NC1c1ccc(OC)cc1 (configuration not stated),inactive: -0.347%
15,C=Cc1ccc(CSc2nnc(C)n3c2cc2occc23)cc1,inactive: -3.12%
16,COc1ccc(NC(=O)c2oc3c(c2C)-c2nn(Cc4ccccc4Cl)cc2CC3)cc1OC,inactive: 4.08%
17,Cc1ccc(-n2c(=O)c3c(cnn3C)n(CC(=O)Nc3c(C)cccc3C)c2=O)cc1,inactive: 0.968%
18,Cc1ccc2c(CC(=O)N(Cc3ccc(Cl)cc3)Cc3ccco3)coc2c1,inactive: -23%
19,Cc1ccccc1Nc1cc(C(=O)NCCc2ccc(Cl)cc2)c2ccccc2n1,inactive: 3.71%
20,COc1cc(C2c3c(oc4ccc(C)cc4c3=O)C(=O)N2Cc2ccccc2)ccc1O (configuration not stated),inactive: -13%
21,Cc1oc(-c2ccc(Cl)cc2)nc1CSCC(=O)NCc1ccccc1Cl,inactive: 1.01%
22,COc1cccc(C(=O)Nc2c(C(=O)c3ccc(F)cc3)oc3ccccc23)c1,inactive: -4.81%
23,COC(=O)Cc1c(C)c2ccc3c(c2oc1=O)CN(Cc1ccccc1OC)CO3,inactive: -2.89%
24,CCC(=O)N1CCc2cc(Br)cc(S(=O)(=O)N3CCCC(C(=O)NCc4ccc(OC)cc4)C3)c21 (configuration not stated),inactive: -19.9%

row,Structure (SMILES),"activity change, negative = inhibition"
1,CCCOc1ccc(C2c3c(-c4ccccc4O)n[nH]c3C(=O)N2CCCOCC)cc1OCC (configuration not stated),inactive: -5.12%
2,O=C(Nc1cccc(F)c1)c1cccc2c1C(=O)N(C1CCCCC1)C2,inactive: 1.3%
3,CCC(=O)N1CCCc2cc(S(=O)(=O)N3CCC(C(=O)Nc4ccccc4CC)CC3)ccc21,inactive: -5.86%
4,CC1=C(c2ccc(C)c(C)c2)S(=O)(=O)N=C1N1CCC(C(=O)Nc2cccc(F)c2)CC1,inactive: -4.88%
5,COc1ccccc1NC(=O)Cn1c(=O)n(-c2cccc(Cl)c2)c(=O)c2c1c1cc(C)ccc1n2C,inactive: -15.5%
6,CN1CCc2nc3sc(C(=O)Nc4cccc(C#N)c4)c(N)c3cc2C1,inactive: -17.8%
7,Cc1cc(C)cc(Nc2nnc(-n3nc(C)cc3C)c3ccccc23)c1,inactive: -23.3%
8,CCc1ccccc1NC(=O)CSc1ncc(S(=O)(=O)c2ccccc2)c(=O)[nH]1,inactive: -0.0398%
9,CCN1CCN(Cc2c(O)ccc3oc(C)c(C(=O)Nc4ccc(C)cc4C)c23)CC1,inactive: 7.41%
10,Cc1cccc(OCC(=O)Nc2ccc(Cl)c(-c3nc4ccccc4[nH]3)c2)c1,inactive: -11%
11,CCCOc1ccc(NC(=O)CC2C(=O)N(c3ccc(Cl)cc3)C(=O)N2CCc2ccncc2)cc1 (configuration not stated),inactive: -11.9%
12,O=C(CC1C(=O)N(c2ccccc2)C(=O)N1Cc1ccc2c(c1)OCO2)Nc1ccccc1 (configuration not stated),inactive: 0.7%
13,Cc1c(C)n(Cc2ccc(F)cc2)c2ccc(C(=O)Nc3ccc(Cl)cc3)cc12,inactive: -7.15%
14,Cc1ccc(-c2cc3c(n2-c2ccccc2F)CC(C)(C)CC3=O)cc1,inactive: -8.39%
15,O=C1CC(c2nnc(Cc3ccccc3Cl)o2)CN1c1ccccc1 (configuration not stated),inactive: -10.1%
16,CCOC(=O)c1ccc(CN(Cc2ccccc2C)S(=O)(=O)c2ccc(F)c(C(=O)Nc3cccc(OC)c3)c2)cc1,inactive: 1.97%
17,O=C(CN1C(=O)CSc2ccc(S(=O)(=O)N3CCCC3)cc21)NCc1ccc(Cl)cc1,inactive: -2.99%
18,COc1ccc(NC(=O)c2oc3ccccc3c2NC(=O)Cc2cccs2)cc1,inactive: -12.6%
19,CCOC(=O)c1cnc2ccc(C)cc2c1NCCc1ccc(OC)c(OC)c1,inactive: -7.77%
20,Cc1ccc(NC(=O)c2sc3nc(-c4ccc(F)cc4)ccc3c2N)cc1F,inactive: -26.1%
21,COc1ccc(C)cc1NC(=O)N1CCN(c2cc(-c3noc(C)n3)ccc2C)CC1,inactive: -8.82%
22,O=C(Cn1cc(C(=O)C2CC2)c2ccccc21)Nc1ccc(Br)cc1,inactive: 9.02%
23,COc1ccccc1N1CCN(c2ccc(-c3nc(-c4ccccc4)no3)cc2[N+](=O)[O-])CC1,inactive: -0.43%

# Reference: PubChem BioAssay AID493208 (National Center for Advancing Translational Sciences (NCATS), 2011)
